Changes are numbered by the printed parent chain. Recombinant human monoclonal antibodies (heavy:light variable regions). ELISA EC50 on the named antigen, from 10 µg/ml down; lower = stronger. No active / inactive call.
B1: C957 (protein)
chain 1: EVQLVESGGGLVQPGRSLRLSCTASGFTFADFSMTWFRQAPGKGLEWVGFIRREADGGTTEYAASVRGRFTISRDDSKGIAYLLMNSLKSEDTAMYYCSRAWIPTPHDYWGQGTLVTVSS
chain 2: not shown
B2: C958 (protein)
chain 1: EVQLVQSGAEVKKPGDSLKISCKGSGYSFISHWIAWVRQKPGKGLEWMGIIHPGDSDTRYSPSIQGQVTISADRFITTAYLQWSSLQASDTAMYYCARRGSSWEIDHWGQGTLVTVSS
chain 2: QSVLTQPPSASGTPGQRVTISCSGSSSNIGSYTVNWYHQVPGTAPKVLIYGNTQRPSGVPDRFSGSKSGTSASLAISGLQSEDEGDYYCAAWDDSLDGWMFGGGTTLTVL
B3: C959 (protein)
chain 1: QVQLQESGPGLVKPSETLSLNCNVSGGSISNYYWSWIRQPPGKGLEWIGFISYSGSTDYNPSLKSRVIISIDTSKKHFSLNLSSVTAADTAVYFCARHYDILTALSWFDPWGQGTLVTVSS
chain 2: QSVLTQPPSVSAAPGQTVTISCSGSSSNIRNNFVSWYQQFPGTAPKLLIYDNNKRPSGIPDRFSGSKSGTSATLGITGLQTGDEADYYCGTWDSSPSACWVFGAGTKLTV
B4: C960 (protein)
chain 1: QVQLVESGGGVVQPGRSLTLSCTASGFTFNRFAMFWVRQAPGKGLEWVAVISFDGSYEHYAESVKGRFAIFRDNPKNTLYLQMNSLRAEDTAVYYCAKSPINYCANGVCYPDSWGQGTLVTVSS
chain 2: NFMLTQPHSVSESPGKTVTISCTGSSGSIANNYVQWYQQRPGSAPTTVIFEDTQRPSGVPDRFSGSIDSSSNSASLNISGLKPEDEADYYCQSFDVNSRWVFGGGTKLTVL
B5: C961 (protein)
chain 1: EVQLVESGGGLVQPGGSLRLSCAASGIIVSNNYMSWVRQAPGKGLEWVSTIFSGGSTYYADSVKDRFTISRDNSNNTLYLQMNSLRPEDTAVYYCTRLGGYRYGMDVWGQGTTVTVS
chain 2: DIQMTQSPSSLSASVGDRVTITCQASQDISKYLNWYQQKPGTAPKLLIYDASELERGVPSRFSGSGSGTDFTFTIISLQPEDIATYYCLQYDNLPYTFGQGTKLEIK
B6: C840 (protein)
chain 1: QVQLVESGGGVVQPGRSLRLSCEASGFTFTAYAMHWLRQAPGKGLEWVAVILNDGSNKLYADSVKGRFTVSRDNSKNMLYLQVNSLRVDDTAVYYCARDGSVDTLMVTWFDYWGQGTLVTVSS
chain 2: DIQMTQSPSSLSASVGDRVTITCRASQSVNNYLNWYQQKPGQAPKLLIYAASSLQSGVPLRFSGSGSGTDFALTITSLHTEDFATYYCQQSYNTPPWTFGPGTKVEIK
B7: C962 (protein)
chain 1: EVQLVESGGGLVQPGGSLRLSCTASRLTVSSNYMNWVRQAPGKGLEWVSVIYAGGSTFYADSVKDRFTISRDNSMNTLYLQMNSLRVEDTAVYYCARLGGYRYGMDVWGQGTTVTV
chain 2: DIQMTQSPSSLSASVGDRVTITCQASQDISNYLNWYQQSPGKAPKLLIYDASKLETGVPSRFSGSGSGTDFTFTISSLQPEDIATYYCLQYDNLPYSFGQGTKLEI
B8: C963 (protein)
chain 1: QVQLVQSGAEVKKPGSSVRVSCKASGGTFSSFTITWVRQAPGQGLEWMGRIIPNLNIPNYAQRFQGRITITAEKSTSTAYLELSSLRSEDTAVYYCARGVGYSGSGSNWYFDLWGRGTLVTVSS
chain 2: QSVLTQPPSVSGAPGQRVTISCTGSSSNIGAGYDVHWYQQLPGTAPKLLISGHINRPSGVPDRFSGSTSGTSASLAITGLQAEDEADYYCQSYDSSLSDSVFGGGTKLTV
B9: C964 (protein)
chain 1: EVQLVESGGGLVQPGRSLRLSCAASGFTFDDYGMHWVRQAPGKGLEWVSGISWNSGSIAYAEFVKGRFTISRDNAKNSLYLQMNSLRTEDTALYYCAKAVPTSCYVFCALDIWGQGTMVTVSS
chain 2: DIQMTQSPSSLSASVGDRVTITCRASQGISNYLAWYQQSPGKVPKLLIYAASTLQSGVPSRFSGSGSGTDFTLTISSLQPEDVATYYCQKYNSGPALTFGGGTKVEIK
B10: C965 (protein)
chain 1: EVQLVESGGGLVKPGRSLRLSCSASGFTFGDYAMTWFRQAPGKGLQWVGFIRSKPFGGTTQYAASVKGRFTISRDDSNNVAYLQMNSLKTEDTGVYYCTRLRQVQGVPGYYFDQWGQGALVTVSS
chain 2: EIVMTQSPATLSVSPGERATLSCRASQSVSSNLAWYQQKPGQAPRLLIYGASIRATGIPARFSGSGSGTEFTLTISSLQSEDFVVYYCQEYDNWFAFGGGTKVEIK
B11: C966 (protein)
chain 1: EVQLVESGGGLIQPGGSLRLSCAASGFTFSSYDMHWVRQVTGKGLEWVSAIGTAGDRYYLDSVKGRFTISRENAKNSLHLQMNNLRVGDTAVYYCARASGVLTTHFDSWGRGTLVTVSS
chain 2: DIQMTQSPSSLSASVGDRVTITCRASQSIGRHLSWHQQKLGKAPKLLIYSASSLQSGVPSRFSGSGSGTDFTLTISSLQPEDFATYYCQQSYETPPWTFGQGTKVEIK
B12: C967 (protein)
chain 1: QVQLVESGGGVVQPGRSLRLSCAASGFTFRIYAMHWVRQAPGKGLEWVAIIWNDGSKQYYADSMKGRFTISRDNSKNTLYLQMNSLRDEDTALYYCAREGVALAGNGVDGFDIWGQGTMVTVSS
chain 2: DIQMTQSPSSLSASVGDRVTITCRASQTISTFLNWYRQIPGKAPKLLIYAASSLQSGVPSRFSGSGSGTDFTLTISSLQPEDFATYYCQQTYSTPYTFGRGTKLEIK
B13: C968 (protein)
chain 1: QVQLVESGGGVVQPGRSLRLSCAASGFTFRIYAMHWVRQAPGKGLEWVAIIWNDGNKKDYVDSVKGRFTISRDNSRNTVYLQMNSLRVDEDTAVYYCAREGVAVGGNGVDGFDMWGQGTMVTVSS
chain 2: DIQMTQSPSSLSSSVGDRVTITCRASQSIGIYLNWYQQKPGKVPNLLIYAASTLQTGAPSRFSGSGSGTDFILSISSLQPEDFATYYCQQTYSVPYTFGQGTKLEIK
B14: C970 (protein)
chain 1: QVQLQESGPGLVKPSETLSLTCTVSGDSINKYYWGWIRQPPGKGLEWIGYIYYSGTTNYNPSLKSRVTISVDTSKTQFSLKLSSVTAADTAVYYCARLLSTEWSFNWFDPWGQGTLVTVSS
chain 2: SYELTQPPSVSVSPGQTASITCSGDTLGDKYACWYQQKPGQSPLLVIYQNNKRPSGIPERFSGSNSGNTATLTISGTQAMDEADYYCQAWDSSTAYVFGTGTKVTVL
B15: C971 (protein)
chain 1: EVQLVESGGGLVKPGGSLRLSCAASGFTFNNAWMTWVRQAPGKGLEWVGRIKSKTDGGTTDYGTPAKGRFTISRDDSKNTLYLQMKSLRTEDTAVYYCTTVDVQGIWELLENDAFDIWGQGTMVTVSS
chain 2: EIVLTQSPGTLSLSPGERATLSCRATQAISSTYLAWYQQKPGQAPRLLIYGAFSRAPGIPDRFSGSGSETDFTLTISRLEPEDFAVYYCQQSDRSPFTFGPGTKVDIK
B16: C841 (protein)
chain 1: EVQLVESGGGLVQPGGSLRLSCAASGFTFSIFSMNWVRQAPGKGLEWISYISSSSGSRHYADSVKGRFTISRDNAKNSLYLQMNNLRDEDTAMYYCAREAHDGALTGYGDYLNWFDPWGQGVLVTVSS
chain 2: SYELTQPPSVSVAPGKTARIPCGGDSVGSKSVHWYQQKSGQAPVLVIHSDSDRPSGIPERFSGSNSGNTATLTITGVAAGDEADYYCHVWDTIGDRFYWVFGGGTKLTVL
B17: C972 (protein)
chain 1: EVQLVESGGGLVQPGGSLRLSCAASEFIVSRNYMSWVRQAPGKGLEWVSLIYPGGSTYYPDSVKGRFTISRDNSKNTLYLQMNSLRGEDTAVYYCARDLGDSRLDYWGQGALVTVSS
chain 2: DIQLTQSPSFLSASVGDRVTITCRASQGISSYLAWYQQDPGKAPKLLIYAASTLQSGVPSRFSGSGSGTEFTLTISSLQPEDFATYYCQQLDSYPPGYSFGQGTKLEIK
B18: C974 (protein)
chain 1: EVQLVESGGDLTQPGGSLRLSCAASGFTFSNYDMHWVRQATGKGLEWVSGIGTSGDTYYADSVKGRFTISRENAKNSLFLQMNHLRAGDTATYYCARTEYAWGSYRSYWYFDLWGRGTLVTVSS
chain 2: DIQMTQSPSSLSASVGDRVTITCRTSQTISTYLNWYQQKPGKAPKVLIFAASSLQSGVPSRFSGSGSGTDFTLTISSLQPEDFATYFCQQSYSAPPWTFGPGTKVEIK
B19: C975 (protein)
chain 1: B18 chain 1 with N31S, H84N
chain 2: B18 chain 2 with F49Y
B20: C976 (protein)
chain 1: EVQLVESGGALIQPGGSLRLSCAASGFTVSSNDMTWVRQAPGKGLEWVSVIYTGGGTYHADSAKGRFIISRHNSKNTLSLQMNDLRAEDTAVYYCARLTMTTYYFDSWGQGTLVTVSS
chain 2: SYELTQPPSVSLAPGQTARITCGGNGIGSKSVHWYQQKPGRAPVLVVYDDSVRPSGTPARFSGANSGNTATLTISRVEAGDEADYYCQVWDSFRDHQDWVFGGGTKLTVL

Target: SARS-CoV-2 Wuhan-Hu-1 spike receptor-binding domain
Test: ELISA binding EC50; higher = weaker binding; ELISA of recombinant human antibody on coated antigen, from 10 µg/ml in fourfold dilutions; four-parameter fit.

Row | Binder | ELISA binding EC50
1 | B1 | 1.93 ng/mL
2 | B2 | 4.02 ng/mL
3 | B3 | 4.58 ng/mL
4 | B4 | 1.62 ng/mL
5 | B5 | 2.57 ng/mL
6 | B6 | 1.36 ng/mL
7 | B7 | 1.74 ng/mL
8 | B8 | 2.96 ng/mL
9 | B9 | 2.79 ng/mL
10 | B10 | 1.69 ng/mL
11 | B11 | 1.97 ng/mL
12 | B12 | 3.58 ng/mL
13 | B13 | 3.19 ng/mL
14 | B14 | 3.71 ng/mL
15 | B15 | 2.21 ng/mL
16 | B16 | 3.15 ng/mL
17 | B17 | 2.18 ng/mL
18 | B18 | 2.94 ng/mL
19 | B19 | 2.88 ng/mL
20 | B20 | 2.52 ng/mL

Reference: the supplement of paper PMC8277577
